# PubChem BioAssay (Tox21)
# Values joined by “and” are separate entries in the source; they are usually repeats but may differ in a detail not shown here. Equal entries are not always repeated. The source holds several records for some structures; these can differ, active in one and inactive in another. Active and inactive are the calls of the source. Unless noted, calls come from the whole dose curve; as a rule, active = well fitted curve in the direction sought with a large enough effect in the repeat runs; inconclusive = weak or mixed curves; inactive = no such curve, though single readings can be large; an effect the other way counts as inactive or inconclusive.
# Assays:
# [1] = qHTS assay to test for compound auto fluorescence at 460 nm (blue) in HepG2 cells (AID 720687); for fluorescence, % of fluorescent control: % is set by controls: 0 for no effect and ±100 for the full control effect
# Outline: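 HepG2 cells in MEM with 10% FBS, attached overnight at 37 C, were exposed to compound or DMSO for 1 hr at 37 C, 5% CO2. Blue fluorescence was read at 405/460 nm, with triamterene as reference fluorophore.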
# [2] = target: Glucocorticoid receptor (Homo sapiens) (UniProt P04150); assay: qHTS assay to identify small molecule agonists of the glucocorticoid receptor (GR) signaling pathway (AID 720691; active = well fitted activation curve with a large enough effect in the signal ratio in the repeat runs, not every such curve was filed as active; inconclusive = weak or mixed curves, or effect the other way; inactive = no such curve, though single readings can be large or run the other way; the % refers to the signal ratio; for activation: % is set by controls: 0 for no effect and ±100 for the full control effect); details: GR-bla HeLa, beta-lactamase reporter ratio, 18 h
# Chain of UniProt P04150 (P04150 whole entry, looked up): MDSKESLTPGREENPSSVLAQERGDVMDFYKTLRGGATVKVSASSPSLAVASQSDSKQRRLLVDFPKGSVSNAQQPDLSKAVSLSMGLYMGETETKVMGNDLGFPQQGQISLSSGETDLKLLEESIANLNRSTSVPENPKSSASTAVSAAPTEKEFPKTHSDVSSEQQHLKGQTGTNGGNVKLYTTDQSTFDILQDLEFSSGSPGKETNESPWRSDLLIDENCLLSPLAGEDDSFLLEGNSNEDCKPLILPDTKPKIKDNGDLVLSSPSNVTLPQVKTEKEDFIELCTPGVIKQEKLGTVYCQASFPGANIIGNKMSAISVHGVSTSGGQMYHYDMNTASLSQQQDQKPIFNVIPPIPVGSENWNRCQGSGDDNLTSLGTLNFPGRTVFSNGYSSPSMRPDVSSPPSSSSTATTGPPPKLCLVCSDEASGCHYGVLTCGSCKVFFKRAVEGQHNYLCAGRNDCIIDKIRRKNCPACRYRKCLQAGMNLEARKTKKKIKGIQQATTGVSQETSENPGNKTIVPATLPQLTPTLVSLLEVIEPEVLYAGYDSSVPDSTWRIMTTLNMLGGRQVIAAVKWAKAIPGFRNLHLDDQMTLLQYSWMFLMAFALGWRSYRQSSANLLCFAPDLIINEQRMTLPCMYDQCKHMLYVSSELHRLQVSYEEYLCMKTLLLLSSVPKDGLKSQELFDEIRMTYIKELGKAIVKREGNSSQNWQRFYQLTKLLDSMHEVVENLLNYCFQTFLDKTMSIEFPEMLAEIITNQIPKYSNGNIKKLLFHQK
# Outline: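 GR-bla HeLa cells (beta-lactamase reporter under glucocorticoid response element) were plated 4 h at 37 C/5% CO2, given compounds in DMSO, and incubated 18 h at 37 C. LiveBLAzer B/G FRET substrate was added for 2 h at room temperature, then fluorescence intensity read.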
# [3] = target: Glucocorticoid receptor (Homo sapiens) (UniProt P04150); assay: qHTS assay to identify small molecule antagonists of the glucocorticoid receptor (GR) signaling pathway (AID 720692; active = well fitted inhibition curve with a large enough effect in the signal ratio in the repeat runs, not every such curve was filed as active; inconclusive = weak or mixed curves, or effect the other way; inactive = no such curve, though single readings can be large or run the other way; the % refers to the signal ratio; for activity change, negative = inhibition: % is set by controls: 0 for no effect and ±100 for the full control effect); details: GR-bla HeLa, beta-lactamase FRET ratio, dexamethasone-stimulated, 18 h; activity change, negative = inhibition: at 58.5 µM (top of the series) unless noted
# Outline: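 GR-bla HeLa cells (beta-lactamase reporter under glucocorticoid response element) were pre-plated 4 h at 37 C, treated with compounds plus 5 nM dexamethasone (final) for 18 h, then read by LiveBLAzer B/G FRET fluorescence after 2 h.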
# [4] = qHTS assay to identify small molecule antagonists of the androgen receptor (AR) signaling pathway - cell viability counter screen (AID 743033; note: nearly all actives have a fitted effect of over 45% in size); details: AR-bla HEK293 viability, CellTiter-Glo luminescence, 16 h; activity change, negative = cytotoxicity: at 58.5 µM (top of the series) unless noted
# [5] = qHTS assay to test for compound auto fluorescence at 460 nm (blue) in HepG2 cell free culture (AID 720685)
# Outline: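 Compound (23 nL) or DMSO pinned into cell-free MEM with 10% FBS; blue fluorescence read at 405/460 nm excitation/emission, expressed as auto-fluorescence equivalency to triamterene.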
# [6] = qHTS assay for identifying genotoxic compounds that show differential cytotoxicity against isogenic chicken DT40 cell lines with known DNA damage response pathways - Rev3 mutant cell line (AID 743014); details: chicken DT40 Rev3-/- viability, CellTiter-Glo, 40 h; activity, negative = cytotoxicity: at 68.4 µM (top of the series) unless noted; note: nearly all actives have a fitted effect of over 55% in size
# [7] = qHTS assay for identifying genotoxic compounds that show differential cytotoxicity against isogenic chicken DT40 cell lines with known DNA damage response pathways - wild type cell line (AID 743012); details: DT40 wild type chicken cells viability, CellTiter-Glo, 40 h; activity change, negative = cytotoxicity: at 68.4 µM (top of the series) unless noted; note: nearly all actives have a fitted effect of over 60% in size; for activity change, negative = cytotoxicity: % is set by controls: 0 for no effect and ±100 for the full control effect
# Outline: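 Parental DNA repair-proficient DT40 cells, 300 per well, were pre-incubated ~0.5 h at 37 C/5% CO2, pin-dosed with compounds in DMSO, then incubated 40 h. Viability was read as CellTiter-Glo luminescence after 30 min at room temperature.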
# [8] = qHTS assay for identifying genotoxic compounds that show differential cytotoxicity against isogenic chicken DT40 cell lines with known DNA damage response pathways - Rad54/Ku70 mutant cell line (AID 743015); details: DT40 Rad54/Ku70 mutant viability, CellTiter-Glo, 40 h; activity change, negative = cytotoxicity: at 66.8 µM (top of the series); note: nearly all actives have a fitted effect of over 60% in size
# [9] = activation: at 62.4 µM (top of the series) unless noted
# Potency is the fitted concentration of half-maximal effect; tags give direction and shape of the fitted curve or compound fluorescence and quenching.
structure (smiles),measurement,setting,value
CCc1c2c(nc3ccc(OC(=O)N4CCC(N5CCCCC5)CC4)cc13)-c1cc3c(c(=O)n1C2)COC(=O)[C@]3(O)CC,Potency,[1],active: 15.8 µM [fluorescent]
same,Potency,[2]; [9],inconclusive: 21.3 µM [activator]
same,Potency,[3],"inconclusive: 19 µM [activator, partial curve]"
same,Potency,[4],"inconclusive: 10.7 µM [cytotoxic, full curve, poor fit]"
CCC[C@H](N[C@@H](C)C(=O)N1[C@H](C(=O)O)C[C@@H]2CCCC[C@@H]21)C(=O)OCC,Potency,[1],inactive
Cc1ccc(Cl)cc1Cl,Potency,[2]; [9],inactive
C/C(=C(\CCOP(=O)(O)O)SC(=O)c1ccccc1)N(C=O)Cc1cnc(C)nc1N,Potency,[2]; [9],active: 11.5 µM
CC(C)(N)CO,activation,[2]; [9],inconclusive: -0.183% [phenotype inactive]
CCc1ccc(CCOc2ccc(CC3SC(=O)NC3=O)cc2)nc1 (configuration not stated),Potency,[2]; [9],inactive
same,"activity change, negative = inhibition",[3],inconclusive: 26.5% and inconclusive: 12.3%
CCCCOCCOCCOCCOCCO,Potency,[5],"inconclusive: 11.2 µM [fluorescent, single point]"
same,Potency,[6],"inconclusive: 30.6 µM [cytotoxic, partial curve, poor fit]"
N#Cc1ccccc1,Potency,[2]; [9],inactive
same,"activity change, negative = inhibition",[3],inconclusive: 2.89%
Cc1cccc(Nc2ccccc2C(=O)O)c1C,activation,[2]; [9],inconclusive: -11.3%
same,activation,[2]; at 62.4 µM (top of the series),inactive: -7.93%
same,"activity change, negative = cytotoxicity",[7],inconclusive: -41.5% [cytotoxic]
Oc1cc(O)c(Cl)cc1Cl,Potency,[2]; [9],inactive
same,Potency,[3],inactive
CC(C)CCC(=O)CCC(C)C,Potency,[2]; [9],inactive
same,"activity change, negative = inhibition",[3],inconclusive: -24.7%
CN1CCN(C2=Nc3ccccc3Oc3ccc(Cl)cc32)CC1,"fluorescence, % of fluorescent control",[5],inactive: -0.0109% [at 18.6 µM]
same,"activity change, negative = inhibition",[3],inconclusive: -2.43% [at 27 µM]
same,Potency,[7],active: 12.7 µM
same,Potency,[6],inconclusive: 14.3 µM [cytotoxic]
O=C(/C=C/c1ccc(O)c(O)c1)O[C@@H]1C[C@](O)(C(=O)O)C[C@@H](O)[C@H]1O,Potency,[2]; [9],inactive
O=C1CCCc2ccccc21,Potency,[2]; [9],inactive
same,Potency,[3],inactive
CCCCOc1cc(C(=O)OCCN(CC)CC)ccc1N,Potency,[2]; [9],inactive
same,Potency,[3],inactive
O=C1CCCCCCCCCCC(=O)OCCO1,activation,[2]; [9],inconclusive: 10.6%
CCOCCOCC,Potency,[2]; [9],inactive
C1=COCCC1,Potency,[2]; [9],inactive
C#Cc1cccc(Nc2ncnc3cc(OCCOC)c(OCCOC)cc23)c1,Potency,[2]; [9],active: 26.8 µM [inconclusive]
same,"activity change, negative = inhibition",[3],inconclusive: 18.8%
OCCOc1cccc(OCCO)c1,Potency,[1],inactive
same,Potency,[6],"inconclusive: 43.3 µM [cytotoxic, partial curve]"
same,Potency,[4],inactive
Cc1nc2sccn2c(=O)c1CCN1CCC(=C(c2ccc(F)cc2)c2ccc(F)cc2)CC1,Potency,[2]; [9],"inconclusive: 30.1 µM [cytotoxic, single point]"
same,Potency,[3],"inconclusive: 13.4 µM [fluorescent, partial curve, poor fit]"
CC(C)C/C=C(\C=O)c1ccccc1,Potency,[5],inactive
same,"activity change, negative = inhibition",[3],inconclusive: -53.2%
same,Potency,[7],inactive
same,Potency,[6],"inconclusive: 68.6 µM [cytotoxic, single point]"
same,Potency,[8],"inconclusive: 68.6 µM [cytotoxic, single point]"
Cl/C(=C\n1cncn1)c1ccc(Cl)cc1Cl,activation,[2]; [9],inconclusive: -13%
same,Potency,[3],"inconclusive: 13.4 µM [inhibitor, partial curve]"
CC(=O)Nc1nnc(S(N)(=O)=O)s1,Potency,[2]; [9],inactive
CC(=O)O[Si](C)(OC(C)=O)OC(C)=O,Potency,[2]; [9],inactive
COCCCOc1ccnc(CS(=O)c2nc3ccccc3[nH]2)c1C (configuration not stated),activation,[2]; [9],active: 16.4% [inconclusive]
same,activation,[2]; at 62.4 µM (top of the series),inactive: -5.49%
same,Potency,[3],"inconclusive: 5.35 µM [activator, full curve] and inactive"
same,Potency,[7],active: 23.7 µM and active: 15.3 µM
same,Potency,[4],"inconclusive: 43.5 µM [cytotoxic, partial curve, poor fit]"
CCCCCCCCCCCCCCCC(=O)O,Potency,[5],inactive
same,Potency,[2]; [9],"inconclusive: 2.68 µM [rising, single point]"
same,"activity change, negative = inhibition",[3],inconclusive: -0.25%
same,Potency,[8],"inconclusive: 6.68 µM [cytotoxic, single point]"
CC(=O)OCC(=O)[C@@]1(O)CC[C@H]2[C@@H]3CCC4=CC(=O)C=C[C@]4(C)[C@@]3(F)[C@@H](O)C[C@@]21C,"fluorescence, % of fluorescent control",[5],inactive: 0.0112% [at 18.6 µM]
same,Potency,[2]; [9],active: 0.0129 µM
same,Potency,[3],"inconclusive: 0.0323 µM [activator, full curve]"
same,Potency,[6],"inconclusive: 0.569 µM [cytotoxic, full curve]"
